Experimental data reported in publication PMC7243443 (Journal of natural products, 2020).

How the values were obtained:
[1] = tested on: human HT-29 colon, MDA-MB-231 breast, and OVCAR3 ovarian cancer, and MDA-MB-435 melanoma cells
[2] = tested on: human HT-29 colon, MDA-MB-231 breast, and OVCAR3 ovarian cancer, and MDA-MB-435 melanoma cells; experiment: Cytotoxicity toward all four cell lines tested; conditions: HT-29, MDA-MB-231, OVCAR3, MDA-MB-435

| Structure (SMILES) | cytotoxicity against all cell lines (in words) [1] | cytotoxicity against all cell lines (in words) [2] |
| --- | --- | --- |
| C[C@]12[C@H](O)CC3=C(CC[C@@H]4C[C@@H](O)CC[C@]34C)[C@H]1CC[C@@H]2C1=CC(=O)OC1 [compound 6, (+)-8(9)-β-Anhydrodigoxigenin] | no discernible activity |  |
| C[C@H]1O[C@@H](O[C@H]2[C@@H](O)C[C@H](O[C@H]3[C@@H](O)C[C@H](O[C@H]4CC[C@@]5(C)[C@H](CC[C@@H]6[C@@H]5C[C@@H](O)[C@]5(C)[C@H]([C@@H]7CC(=O)O[C@@H]7O)CC[C@]65O)C4)O[C@@H]3C)O[C@@H]2C)C[C@H](O)[C@@H]1O [compound 7, (+)-17-epi-20,22-Dihydro-21α-hydroxydigoxin] |  | no discernible activity |

Like-named read-outs stand apart in the source and are kept apart here.
